Laboratory results taken from the RNAGym collection of RNA variant scans (doi:10.7554/elife.90254).
The source gives no read counts; variants with many changes may rest on few reads.

B1: OR4K15 (parent)
chain: GUUAACGGUCAUAGGCCAUGGAAACUAGGAGCACCAUUUCGCUGCCAGUGAAGAAAUGAACAAAGAAAAUCUGGGCCAGGCAGGCAUCAAAAGAAAUAGUCUUGCGCUCAACCAGAAAGUCUGUAAUCAUUUUAAGGGUA

Variants of: B1
Assay: self-cleavage, relative activity (ratio to wild type); higher = more cleavage; in vitro, sequencing; the parent is a self-cleaving ribozyme

| Variant | self-cleavage |
| --- | --- |
| A23G U39A U100C | 1.73 |
| A22U A69G A78G U120C | 0.1 |
| A23G A47U U102C G104A | 0.06 |
| A23G A90G U122C | 0.74 |
| A23G A54U A63G U97C C121U | 0.99 |
| A22G U100C A118G | 1.41 |
| A23G A114G A140U | 0.43 |
| A23G A114G A140G | 0.23 |
| A23G A116G U131C | 0.29 |
| A23G U39C A98U U108C | 0.01 |
| A22G U39C U103C A110G | 0.23 |
| A22U A94G U132C | 1.26 |
| A22U U57C A116G C121U | 0.48 |
| A23G A82G A116U U124A | 0 |
| A23G A89G A110G A117G | 0.2 |
| A22G U38C U49C A51G A68G | 1.03 |
| A22G C32U U122C | 0.59 |
| A23G A62U C121U | 1.43 |
| A23G A55G A110G A126G | 0.12 |
| A22G G58U G75A U130C | 0.07 |
| A22G U49C U70C C81A G84A | 0.15 |
| A23G U39C A59G | 0.89 |
| A22U U132C A135G | 1.91 |
| A22U U108C G136A A140G | 0.02 |

| Variant | self-cleavage |
| --- | --- |
| A23G U43C A54G A86G A95G A111G | 0.03 |
| A23G A98U U120C | 2.07 |
| A23G A54G A118G U130C | 0.5 |
| A23G A52G U57C A68G A117G | 1.2 |
| A22G U26C A68G | 1.23 |
| A23G A24G A27G A30G | 1.09 |
| A23G A69G A82U G136C | 0.31 |
| A23G A36U A91G | 0.49 |
| A23G A52G C107U | 0.08 |
| A23G U37C U49C A62G A111G | 0.02 |
| A23G A47G A62G A118G A126G U131C | 0.14 |
| A23G A52U A129G | 0.6 |
| A23G A62U G84A A95G A96G U108C A126G | 0.01 |
| A22U A54G A64C | 1.07 |
| A23G A51G A111G | 0.06 |
| A23G U37C U132C | 1.99 |
| A23G A82U U122A | 0.22 |
| A22U A64G G106C | 0.02 |
| A22U A24G U57C | 0.87 |
| A23G G41A A62U A114U | 0.11 |
| A22G U100C A126C | 1.5 |
| A23G U37C A82C U120C | 0.1 |
| A22G U38A G65U A89G A110G | 0.02 |
| A22G U127C A129G U131C | 0.39 |

| Variant | self-cleavage |
| --- | --- |
| A22G U43C A63G A116G A118G U131C | 0.07 |
| A23C A64G U103C A114C | 0.05 |
| A23G A54G A118G | 0.86 |
| A23G U43C A94U | 2.19 |
| A22G U49G A55G U70C A90U U100C U108C | 0.01 |
| A23G U39C A117G | 1.14 |
| A23G A51G A52U U122A | 0.83 |
| A22U A62U A90G C109U | 0.27 |
| A22G U43C A69C | 1.2 |
| A23G U38C A68U A69G U120C | 0.37 |
| A22G U49C A68G U87A A96U | 1.43 |
| A23G A51U A54G A117U | 0.82 |
| A22U A33G A95G U108A U130C | 0 |
| A23G A56G U108C A111C A116G U122C | 0.01 |
| A23G U43C A55G A96U U108C A111C | 0.02 |
| A22G U72C A82U A86G A95G | 0.31 |
| A22U A55G U127C | 0.86 |
| A22G U38C A59G A94G | 1.41 |
| A23G A66G A96G U100C | 2.24 |
| A23G A60U A96G U108C A110G | 0.02 |
| A22U A111G A114G | 0.02 |
| A23G A36G A66G U72C | 0.41 |
| A22U A54G G84U | 1.04 |
| A22G U37G A92G | 0.8 |

| Variant | self-cleavage |
| --- | --- |
| A22U A33G A52G A91G A96G U108C | 0.02 |
| A23G A117G U122A U131A | 0.67 |
| A22G U37C A69G | 0.9 |
| A23G A86G A96G | 1.31 |
| A22U A23G U133C | 2.27 |
| A23G A51G A69G A92G U100C | 1.39 |
| A23G A47G U97A | 0.99 |
| A23G A52G A117G G123A | 1.73 |
| A23G A47G A59U A66G A126U | 0.41 |
| A23G A33G A111G | 0.06 |
| A23G A36G A54G U57C A67G A86G | 0.76 |
| A23G A55G A68U A92G U102C | 1.71 |
| A23G A33U A62U A68G U130A | 1.28 |
| A23G C35U A51G G106U | 0.01 |
| A22G G53U A95G | 1.22 |
| A22G U43A A60G A89G A92U | 1.07 |
| A23G A30U A90U A118G U122C | 0.75 |
| A22G U100C A135U | 2.63 |
| A23G A68G U103C A118G A125G | 0.03 |
| A23G A27G A92G C128U | 1.14 |
| A22G A117G U130C | 1.08 |
| A22G U72C A82U A118G | 0.02 |
| A23G U37C A69G A116G | 0.52 |
| A23G A60U U72G | 0.48 |

| Variant | self-cleavage |
| --- | --- |
| A22G U26A A60G | 1.06 |
| A22U U26C A64U C71U | 0.18 |
| A23G A78C A90G | 0.36 |
| A23G A63G U127C A135G | 1.65 |
| A22U A33G C88U | 1.09 |
| A23G A27U A64C U103A U132C | 0.11 |
| A22G U39A A69G | 1.21 |
| A23G A56G C81U | 0.48 |
| A23G A47U U87C A91G U131C | 0.22 |
| A22G U38C A52G U102A | 0.96 |
| A22U U70C U124A | 0.07 |
| A23G A51G A117G A126G | 1.99 |
| A23G A24G C25U A33G | 1.17 |
| A23G U39A U122A | 0.63 |
| A23G A117G U131C | 2.93 |
| A23G A63G A90G U120C | 0.83 |
| A23G C42U A47U A52G | 0.46 |
| A23G A59G U70C A126G | 0.31 |
| A23G A55G C88U U102C | 1.43 |
| A23G A69G A134G | 1.32 |
| A23G A24U A69G A82C U130C | 0.05 |
| A22U A66G G74A U131C | 0.2 |
| A23G A33U A62U U130C | 0 |
| A23G C40U U49A A110G | 0.17 |

| Variant | self-cleavage |
| --- | --- |
| A23C A24G G74A | 0.36 |
| A23G A54G U72C | 0.06 |
| A22U A67G U102C | 1.47 |
| A23G A78G U87G U100C | 0.2 |
| A22G U43G A54U | 1.47 |
| A23G U39C U43C | 0.91 |
| A23G A54G A129C | 0.8 |
| A22U U49C A95G | 2.34 |
| A23C A67G U127G | 1.59 |
| A22G A94G A116G U127C | 0.32 |
| A23G A24G C45U A56G A59G A64G A94G | 1.19 |
| A22G C32U A62G A110G U130C | 0.05 |
| A22U A52U U100C A125G U130C | 1.19 |
| A23G A67G A118G | 1.38 |
| A23G A92G A118G | 0.69 |
| A23G A67G U122C C128U | 0.67 |
| A23G A52G G74A U102A U132A A140U | 0.09 |
| A22U A24G U70C | 1.31 |
| A23C A47G A64G A78U | 0.16 |
| A22U U37C A82G | 0.19 |
| A22G U39C A66G A92G U100C U102C A110G A114C | 0.01 |
| A22G U43C A51G | 2.1 |
| A22U A56G A68G | 0.87 |
| A23G A27G A86G A91G A117G U122C A129G | 0.07 |

| Variant | self-cleavage |
| --- | --- |
| A23G U43C U122A | 0.84 |
| A23G C32U A89G A90G | 0.51 |
| A23G A27G U38C U57A U87C | 1.18 |
| A22U U37G U87C U102A | 0.17 |
| A23G A54G U57C | 0.92 |
| A23G A51G A66G A116G | 0.43 |
| A22G A98G A126C | 0.12 |
| A23G A66G A82G U97C | 0.32 |
| A23G A60G A117G | 1.12 |
| A23G A33U U122A | 1.43 |
| A23G A52G A82U | 0.09 |
| A22U A78U C105U | 0.01 |
| A22G U70C U122C | 1.21 |
| A22U A55G A126G | 0.57 |
| A23G A24G U49C A52G A54G A55G U133C A134G | 0.36 |
| A23G A47U A55G A96G A111G G123A | 0.01 |
| A22U A90G A91G | 0.61 |
| A22U U39C C128U U130C | 0.98 |
| A22G U38C A89G A110G | 0.13 |
| A22G U43A A111G | 0.09 |
| A22G A95G A116U | 0.48 |
| A23G A66G A129G U132A | 1.26 |
| A22G C40U A56G | 1.19 |
